Measured values: PMC4336329 (PLoS ONE, 2015)
Among all 310,000 compounds or so, about 2,200 (0.71%) showed an effect of 50% or more. Effects have a minus sign here. This is one part of the list.

Target: human ether-à-go-go-related gene (hERG) potassium channel (human, UniProt Q12809)
Assay: primary screen, population patch clamp on CHO cells stably expressing hERG

Chain of human ether-à-go-go-related gene (hERG) potassium channel (Q12809 whole entry, looked up): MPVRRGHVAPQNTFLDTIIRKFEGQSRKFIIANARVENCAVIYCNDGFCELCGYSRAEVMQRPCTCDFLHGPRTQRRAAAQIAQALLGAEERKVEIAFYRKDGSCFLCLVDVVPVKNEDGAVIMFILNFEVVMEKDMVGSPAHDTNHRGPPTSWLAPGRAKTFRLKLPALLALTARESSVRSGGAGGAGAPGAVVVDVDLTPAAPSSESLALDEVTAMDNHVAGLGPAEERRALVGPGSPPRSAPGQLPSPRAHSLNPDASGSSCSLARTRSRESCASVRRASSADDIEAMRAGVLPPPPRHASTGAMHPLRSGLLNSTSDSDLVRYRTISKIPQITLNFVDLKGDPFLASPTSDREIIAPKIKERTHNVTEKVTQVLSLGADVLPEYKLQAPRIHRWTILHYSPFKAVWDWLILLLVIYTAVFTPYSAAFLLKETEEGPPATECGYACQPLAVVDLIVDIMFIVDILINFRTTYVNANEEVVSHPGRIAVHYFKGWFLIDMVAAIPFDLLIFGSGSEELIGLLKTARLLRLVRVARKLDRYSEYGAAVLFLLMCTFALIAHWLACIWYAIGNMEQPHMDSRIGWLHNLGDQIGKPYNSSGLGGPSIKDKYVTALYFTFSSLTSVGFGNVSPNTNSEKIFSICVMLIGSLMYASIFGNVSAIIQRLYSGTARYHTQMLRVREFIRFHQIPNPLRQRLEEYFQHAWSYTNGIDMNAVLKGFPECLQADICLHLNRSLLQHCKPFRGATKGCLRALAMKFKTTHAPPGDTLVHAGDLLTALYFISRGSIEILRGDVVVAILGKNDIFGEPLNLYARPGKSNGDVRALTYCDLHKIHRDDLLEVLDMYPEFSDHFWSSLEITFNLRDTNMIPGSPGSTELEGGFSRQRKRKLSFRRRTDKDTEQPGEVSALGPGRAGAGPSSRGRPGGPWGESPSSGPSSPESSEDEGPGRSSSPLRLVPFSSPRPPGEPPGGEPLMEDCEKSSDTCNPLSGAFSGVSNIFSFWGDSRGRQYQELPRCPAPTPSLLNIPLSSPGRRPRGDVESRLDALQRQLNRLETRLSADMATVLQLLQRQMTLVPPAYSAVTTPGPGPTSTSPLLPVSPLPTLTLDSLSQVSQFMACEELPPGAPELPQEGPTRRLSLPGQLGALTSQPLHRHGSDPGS

| Compound | hERG current change (%, negative = inhibition) at 1uM |
| --- | --- |
| NC(=O)c1ccc(NC(=O)CCCN2C(=O)c3ccccc3C2=O)cc1 | 10.7% |
| Cc1nc(-c2ccccn2)sc1C(=O)Nc1ccc(F)cc1F | 14.5% |
| CC1(C)Oc2ccc(C(=O)Nc3ccccc3)cc2N(CC#N)C1=O | 15.3% |
| O=C(Cn1cc2c(n1)CCCC2)NCCCN1CCN(C2CCCCC2)CC1 | 10.9% |
| CN1C(=O)S/C(=C/c2ccc(OCc3cccc(C(=O)O)c3)cc2)C1=O | 13.6% |
| O=C(C[n+]1ccc(C(=O)N/N=C/c2ccc(OCc3ccccc3)cc2)cc1)c1ccccc1.[Br-] | 21.3% |
| COc1cc(CNCCSc2nnnn2C)cc(Br)c1OCc1ccccc1F.Cl | 4.34% |
| Cn1c(=O)c2c(nc(CN3CCOCC3)n2CC(O)CO)n(C)c1=O (stereo not drawn) | -2.92% |
| CCn1c(CCNC(=O)c2cccs2)nnc1SCC(=O)NC1CCCCC1 | 0.54% |
| COc1ccc(/C=N/NC(=O)c2cccc(O)c2)cc1Cn1nc(C)c([N+](=O)[O-])c1C | 17.7% |
| COC(=O)c1c(NC(=O)CN2CCC3(O)CCCCC3C2c2ccc(F)cc2)sc(C)c1C (stereo not drawn) | 2.37% |
| Cc1ccc(CN(Cc2cc3cc(C)ccc3[nH]c2=O)C(=O)N2CCOCC2)cc1 | -4.51% |
| COc1ccc(C2(CCN)CC(C)N(C)CC2C)cc1.Cl (stereo not drawn) | 4.32% |
| CCOC(=O)c1[nH]c(COC(=O)c2ccccc2NC(=O)c2ccco2)c(C(=O)OCC)c1C | 14.2% |
| COc1ccc(C2=NS(=O)(=O)N(C)C(C(=O)NC(C)c3ccccc3)=C2)cc1OC (stereo not drawn) | 9.28% |
| NC(=S)NNC(=O)c1ccccc1 | -1.13% |
| O=C(CCNC(=O)c1ccc(Br)cc1)Nc1ncccc1O | 20.8% |
| CCOC(=O)Cc1csc(NC(=O)CSc2nnnn2-c2ccc(CC)cc2)n1 | 0.123% |
| Cc1cccc(-n2ncc3c2CCCC3NC(=O)CCN2CCCCO2)c1C (stereo not drawn) | 13.7% |
| NC(=O)C1(N2CCCCC2)CCN(C(=O)CSc2nc(C(F)(F)F)cc(=O)[nH]2)CC1 | 3.56% |
| COc1ccc(CNC(=O)CCCn2c(SCC#N)nc3cc4c(cc3c2=O)OCO4)cc1 | 8.71% |
| Cc1cccc(C(=O)OCC(=O)NNC(=O)c2cccs2)c1O | 10.9% |

| Compound | hERG current change (%, negative = inhibition) at 1uM |
| --- | --- |
| Cc1oc(C(C)(C)C)c(CN2CCOCC2)c1C(=O)O.Cl | 21.9% |
| Cc1ccc(-c2nnc(SCC#N)n2N)cc1 | 18.3% |
| CCOC(=O)C1=C(C)Nc2ccccc2N=C1N | 7.46% |
| Cc1ccc(S(=O)(=O)Nc2ccsc2C#N)cc1 | 13.1% |
| COc1c(Cl)cc(C(=O)Nc2ccc(Cl)cn2)cc1Cl | 10.3% |
| CCCn1c(SCC(=O)NCc2ccco2)nnc1-c1ccncc1 | 15% |
| CSCC[C@H](NS(=O)(=O)c1ccc(C(C)=O)cc1)c1nnc2ccccn12 | 9.97% |
| COc1ccc(/C=N/NC(=S)Nc2c(C)n(C)n(-c3ccccc3)c2=O)cc1OC | 14.5% |
| CSCCOC(=O)C1=C(C)Nc2ccc(C)cc2S1 | 11.8% |
| COc1cccc(N(C(=O)c2snc(C(N)=O)c2N)C(C(=O)NCc2ccccc2)c2ccc(O)cc2)c1 (stereo not drawn) | 5.25% |
| COc1ccc2c(c1)CC/C(=C/c1cc(OC)c(OC)c(OC)c1)C2=O | 4.26% |
| CN(CCCNC(=O)CN1C(=O)CC(C)(C)S(=O)(=O)c2ccccc21)C1CCCCC1 | 11.4% |
| CCC(C)/C=C(C)/C=C/C1=CC2=C(Cl)C(=O)C(C)(OC(C)=O)C(=O)C2=CO1 (stereo not drawn) | 4.76% |
| CCOc1ccc(C(=O)CCC(=O)N2CCC(C(=O)OC)CC2)cc1 | 10.1% |
| COc1cc(/C=N/n2c(-c3cc(C)[nH]n3)n[nH]c2=S)cc(OC)c1OC | 11.8% |
| CC(=O)NC1CCCN(O)C(=O)/C=C(\C)CCOC(=O)C(NC(C)=O)CCCN(O)C(=O)/C=C(\C)CCOC(=O)C(NC(C)=O)CCCN(O)C(=O)/C=C(\C)CCOC1=O (stereo not drawn) | -9.21% |
| O=C1NC(=S)N/C1=C/c1cc([N+](=O)[O-])ccc1N1CCOCC1 | -8.36% |
| CC1(C)C([N+](=O)[O-])C(c2ccc(F)cc2)NC(c2ccc(F)cc2)C1[N+](=O)[O-] (stereo not drawn) | 14.4% |
| O=C(NC(=S)NCCN1CCOCC1)c1ccccc1Br | 16.7% |
| Cc1cc(=O)oc2c3c(cc(OCC(=O)NCc4ccncc4)c12)OC(C)(C)CC3 | 3.27% |
| Cc1occc1C(=O)Nc1cccc(C(F)(F)F)c1 | -0.447% |
| CN(C)c1ccc(NC(=O)CSCc2nc3c(nnn3Cc3ccc(F)cc3)c(=O)[nH]2)cc1 | -2.58% |

| Compound | hERG current change (%, negative = inhibition) at 1uM |
| --- | --- |
| Cc1cccc(NC(=O)c2nc[nH]c2C(=O)N[C@H](C)c2ccccc2)c1 | 19.7% |
| COc1ccc(OC)c(C(=O)N2CCC(C(=O)c3ccc(F)cc3)CC2)c1 | 8.14% |
| Cc1c(C(=O)N2CCC(C(N)=O)CC2)oc2ccc(Br)cc12 | 10% |
| CCn1cc(C(=O)NCc2ccco2)c2cc(OC)c(OC)cc2c1=O | -8.54% |
| COc1ccc(C2=NOC(C(=O)NCc3cccs3)C2)cc1OC (stereo not drawn) | 17.6% |
| O=C(O)CC1S/C(=N/N=C2CCCCC2)N(c2ccccc2)C1=O (stereo not drawn) | 13% |
| Cc1ccc(CNC(=O)C2CCN(S(=O)(=O)c3ccc4c(c3)CC(C)N4C(=O)C3CC3)CC2)cc1 (stereo not drawn) | -0.584% |
| CN1CCC(=NNC(=O)c2cn(-c3ccccc3)nc2-c2ccccc2)CC1 | 10.9% |
| CCOC(=O)CSc1nc2ccc(C)cc2cc1C#N | -1.42% |
| CC(C)CC(NC(=O)c1cccs1)c1nnc(SCc2ccc(Cl)c(Cl)c2)n1C (stereo not drawn) | 11.9% |
| Cc1sc2ncn(CC(=O)N3CCN(c4ccccc4)CC3)c(=O)c2c1S(=O)(=O)N1CCOCC1 | 11.4% |
| Cc1cnc(NC(=O)CSc2ccc(Cl)cc2)s1 | 5.22% |
| COc1ccc(CC(=O)Nc2nc(C)cs2)cc1S(=O)(=O)N1CCOCC1 | 6.98% |
| Cc1ccc(/C=N/NC(=O)c2cc3c(s2)CCCC3)o1 | 9.87% |
| COc1ccc(-n2c(CNC(=O)COc3ccccc3)n[nH]c2=S)cc1 | 15.2% |
| O=C1Nc2ccccc2Nc2ccc([N+](=O)[O-])cc21 | 0.957% |
| COC(=O)CSc1nc(N)nc(C)c1Br | 7.96% |
| COC(=O)/C(=C/Nc1ccc(O)cc1)[N+](=O)[O-] | 12.9% |
| CC(C)CCNC(=O)C(c1cccs1)N(CC1CCCO1)C(=O)Cn1nnc2ccccc21 (stereo not drawn) | 10.4% |
| Cc1ccc(N2CC(C(=O)NCc3nnnn3-c3ccc(C)c(C)c3)CC2=O)cc1 (stereo not drawn) | 11.5% |
| O=C(O)c1cccc2c1C(=O)c1ccccc1-2 | 12.6% |
| CCCCC1=NN(C(=O)c2cocc2C)C(O)(C(F)(F)F)C1 (stereo not drawn) | 10.1% |

| Compound | hERG current change (%, negative = inhibition) at 1uM |
| --- | --- |
| Cc1[nH]c(=O)[nH]c(=O)c1S(=O)(=O)N1CCCC1 | 8.99% |
| Cc1cccc(-c2noc(CCC(=O)NC3CCCC3)n2)c1 | 12.1% |
| O=C(CN1C(=O)C2C3C=CC(C3)C2C1=O)Nc1ccc2c(c1)OCCO2 (stereo not drawn) | -1.33% |
| CN(c1ccccc1C(=O)NCc1ccccc1Cl)S(=O)(=O)c1ccccc1 | 10.9% |
| O=C(NNC(=S)Nc1ccc(Cl)c(Cl)c1)c1cccc([N+](=O)[O-])c1 | 16.3% |
| CCN(CC)CCOC(=O)c1ccc(NC(=O)CNC(=O)C2CCCCC2)cc1.Cl | 1.83% |
| COc1cccc(-c2nnc(SCC3CNC(=O)O3)n2-c2ccc(Cl)cc2)c1 (stereo not drawn) | 15.8% |
| CCC(C)NC(=O)Cn1cnc2sc(C)c(S(=O)(=O)N3CCCCC3)c2c1=O (stereo not drawn) | 9.83% |
| Cc1cccc(NC(=S)NCC(c2cccnc2)N(C)C)c1C (stereo not drawn) | 10.1% |
| CSc1ccc(Cl)c(C(=O)NCCOc2cc(C)ccc2C(C)C)c1 | 12.9% |
| Nn1cnnc1SCC(=O)Nc1ccc(C2CCCCC2)cc1 | 7.57% |
| CCOC(=O)c1ccc2c(c1)nc(SCC(=O)c1ccco1)n2CC | 11.9% |
| Cc1cc(-c2onc(C)c2C(=O)Nc2ccc(C(F)(F)F)cc2)no1 | 9.78% |
| O=C(NCC1(c2ccccc2)CCOCC1)c1ccc(Br)o1 | 5.21% |
| C1CC2OC2CC1C1CO1 (stereo not drawn) | 14.8% |
| Cc1ccccc1-n1c(SCc2cccc(F)c2)nc2[nH]ncc2c1=O | 6.09% |
| Nc1ccn(CC(=O)NCc2ccc3[nH]ccc3c2)c(=O)n1 | 22% |
| O=C(Oc1c(-c2ccccc2)c(=O)n2c3c(cccc13)CC2)c1ccco1 | 1.13% |
| COc1ccc(/C=C(\NC(=O)c2ccco2)C(=O)N2CCCCC2)cc1 | 16.5% |
| CCC(=NCCCO)c1c(O)n(-c2ccc(OC)cc2)c(=O)[nH]c1=O | 13.3% |
| Cc1[nH]c(=O)[nH]c(=O)c1/C=N/NC(=O)[C@H](CC(C)C)NC(=O)OC(C)(C)C | 10.2% |
